Source: the supplement of paper PMC10338343
± gives the standard deviation. This is a selection; strong and weak results do not stand in their true shares.

System: MIWI (PIWIL1) piRISC loaded with L1MC piRNA (30 nt)
Assay: pre-steady-state target cleavage rate (min^-1); MIWI and MILI are mouse PIWI proteins and EfPiwi is from a freshwater sponge; tags in brackets are library labels; higher = faster piRNA-guided slicing of the target
Details: guide: L1MC piRNA 5'p-UAACUAAAUACUAUGCAAGCUGUAGGUCCU
Outline: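 The pre-steady-state cleavage rate was obtained by Cleave-'n-Seq with a burst-and-steady-state fit. A transcribed, DNA-blocked target RNA library (0.1 nM) was mixed with 1 nM active affinity-purified piRISC carrying one synthetic guide, with or without 500 nM GTSF1 partner protein, in HEPES–potassium acetate buffer at 33 °C for 0–8 or 0–960 min. Uncleaved targets were sequenced and normalised to depth and to weakly complementary targets, with three trials pooled and k3 capped at 0.0001 min^-1.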

[1] = auxiliary factor: 500 nM mouse GTSF1
[2] = auxiliary factor: none (no GTSF1)

Sequence	pre-steady-state target cleavage rate [1]	pre-steady-state target cleavage rate [2]
UCCUGGAUGUCCAUGCAUAGAAUUUAGUUA	0.00489 ± 0.0044	–
UCCUGGAUGUCGACGCAUAGUAUUUAGUUA	0.00699 ± 0.003	–
UCCUGGAUGUCCAUUGCAUAGUAUUUAGUUA	0.0301 ± 0.009	–
UCCUGGAUGAGCUUGCAAUGUAUUUAGUAA	0.0113 ± 0.0031	–
UCCUGGAUGUCGAACGUAAGUAAUUAGUAA	–	< 0.0001
UCCUGGAUGUCCUUGCAUAGUUUUUUGUUA	0.00506 ± 0.004	–
UCCUCCUACAGCUUGCAUAGUAUAAUGAAA	0.271 ± 0.045	–
UCCUCCUAGAGCUUGCAUAGUAUUUUCAAA	0.186 ± 0.033	–
UCCUGGAUGAGCAUGCAUAGUAUUUACAAA	0.0519 ± 0.018	–
UCCUCCUACAGCUACCAUAGUAUUUAGUAA	0.182 ± 0.029	–
UCCUGCUACAGCUUGCAUAGUAAAUACAAA	0.0807 ± 0.028	–
UGGACCUACAGCUUGCAUAGUUAAUAGUAA	0.0448 ± 0.01	–
AGGACCUACAGCUUGCAUAGUAUAAAGAAA	0.434 ± 0.077	–
UCCUGGAUGUCCUUGCAUUGUAUUUAGAUA	0.00414 ± 0.0039	–
UCCUGGAUGUCGAACGUUAAGUAUUUAGUUA	< 0.0001	–
UCCUGCUACAGCAAGCAUAGUAUUUAGAAA	0.274 ± 0.053	–
UGGACCUAGUCCUUGCAUAGUAUUUAGAAA	0.0216 ± 0.0097	–
AGGACCUACAGCAAGCAUAGUAUUUUCAAA	0.437 ± 0.082	–
UCCUGGAUGUCGUGUGCAUAGUAUUUAGUUA	0.0163 ± 0.0053	–
UCCUGGAUGUCCUUCGCAUAGUAUUUAGUUA	0.0131 ± 0.0043	–

Sequence	pre-steady-state target cleavage rate [1]	pre-steady-state target cleavage rate [2]
UCCUGGUACAGCUAGCAUAGUAUUUACAAA	0.119 ± 0.024	–
UCCUCCUACAGCUUGCACUAGUAUUUAGUUA	0.0575 ± 0.021	–
UCCUGGAUGUCCUUGCAUAGUAUUUACAUA	0.0139 ± 0.0063	–
UCCUGGAACAGCAACCAUAGUAUUUAGUAA	0.00452 ± 0.0033	–
UCCUGGAUGUCGUUGCAAAGUAUUUAGUUA	0.00574 ± 0.0025	–
UCCUGGUACAGCAACCAUAGUAUUUAGUUA	0.0521 ± 0.011	–
UCCUGGUACAGCUUGCAUAGUAUUUGUUA	0.182 ± 0.035	–
UCCUGGAACAGCUUGCAGUAGUAUUUAGUUA	0.00503 ± 0.0043	–
UCGACCUACAGCUUGCAUAGUUAAUACAAA	0.126 ± 0.036	–
UGGACCUACAGCUUGCGAUAGUAUUUAGUUA	0.0216 ± 0.0064	–
UCCUGGAUGAGCUUGGAUAGUAUUUACUUA	–	0.00357 ± 0.0031
UGGACCUACAGCAACCAUAGUAUUUAGUAA	0.0818 ± 0.015	–
UCCUGGAUGUCGAACGAAAGUAUUUUGUUA	–	< 0.0001
UCCACCUACAGCUUGCAUAGAUUUUAGUAA	0.13 ± 0.03	–
UCCUCCUUGUGCUUGCAUAGUAUUUUCAAA	0.0489 ± 0.012	–
UGGACCUACAGCUUGCAUUCUAUUUUCAAA	0.0045 ± 0.0031	–
UCCUGGAUGUCGAACGUAAGUAUAUAGUAA	–	< 0.0001
UCCACCUACAGCUUGCAAUCUAUUUAGUAA	0.131 ± 0.024	–
UCCUGGAUGUCCUUGCAUAGUAUAUUAGUUA	0.025 ± 0.0089	–
UCCUGGAUGUGGUUGGAUAGUAUUUAGUUA	0.023 ± 0.0089	–

Sequence	pre-steady-state target cleavage rate [1]	pre-steady-state target cleavage rate [2]
UCCUGGAUCAGCUUCCAUAGUAUUUAGUUA	0.0302 ± 0.0062	–
UCCUGGUACAGCUUGCUUAGUAUUUACAAA	0.0951 ± 0.021	–
UCGACCUACAGCUUGCUAAGUAUUUAGUAA	0.108 ± 0.016	–
UGGACCUACAGCUUGCAUAGAUAUUAGUAA	0.00525 ± 0.004	–
UCCUGGAUGUCGAUGCAUAGUAUUUAGUUUA	0.0105 ± 0.005	–
AGGACCUACAGCUUGCAAUGUAUUUUCAAA	0.0821 ± 0.024	–
UCCUCCUACAGCUUGCAUAGUAUAAUGUAA	0.16 ± 0.033	–
UCCUGGAUGUGCUUGCAUAGUAUUUUCAUA	0.0173 ± 0.0067	–
AGGACCUACAGCUUGCAUAGUAUUAUGUAA	0.301 ± 0.075	–
UCCUGGAUGUCGUUGCUUUGUAUUUAGUUA	< 0.0001	–
UCCUGCUACAGCUUGCAUAGUUAAUAGUAA	0.0512 ± 0.018	–
UCCUGGAACAGCUUGCAUAGUUUUUACAAA	0.0689 ± 0.022	–
UCGACCUACAGCUUGCAUUCUAUUUACAAA	0.146 ± 0.047	–
UCGACCUACAGCUUGCAUAGAAUUUUCAAA	0.369 ± 0.059	–
UCCACCUACAGCUUGCAUUCUAUUUAGAAA	0.0473 ± 0.015	–
UCCUGGUACAGCAAGCAUAGUAUUUAGAAA	0.123 ± 0.032	–
UGGACCUACAGGAAGCAUAGUAUUUACAAA	0.104 ± 0.023	–
UCCUGGAACAGCUUGCAUACAAUUUAGUAA	0.0102 ± 0.0056	–
UCCUGGAUGAGCUUCCAUAGUAUUUACUUA	0.0116 ± 0.0069	–
UCCACCUACAGGAAGCAUAGUAUUUAGAAA	0.15 ± 0.029	–
